In PubChem BioAssay AID1346428 (National Center for Advancing Translational Sciences (NCATS), 2018):
Hit rate of the full screen: of about 48,000 compounds, about 1,200 (2.5%) were called active. Inconclusive results (about 2%) are left out.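 How the source made its calls: active means activation of at least 60% and not above a set upper limit (about 1 call in 100 departs from these limits); inconclusive means activation of 40% to 60%, or above that upper limit; inactive means activation under 40%.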 The list shows a part of the results.

target: Probable G-protein coupled receptor 32 (Homo sapiens) (UniProt O75388); assay: qHTS for Agonists of Human Resolvin D1 Receptor DRV1; details: CHO-K1 GPR32 beta-arrestin PathHunter luminescence, 90 min; at 76.9 µM; hits give high values; zero percent set by DMSO-only wells; further: 0% is about no effect
Outline: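 Cells are plated overnight, treated with compounds in DMSO for 90 minutes at 37 °C, and developed with PathHunter detection reagent for 1 hour before luminescence is read; signal reflects beta-arrestin binding to GPR32 in engineered CHO-K1 cells.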

Chain of UniProt O75388 (O75388 whole entry, looked up): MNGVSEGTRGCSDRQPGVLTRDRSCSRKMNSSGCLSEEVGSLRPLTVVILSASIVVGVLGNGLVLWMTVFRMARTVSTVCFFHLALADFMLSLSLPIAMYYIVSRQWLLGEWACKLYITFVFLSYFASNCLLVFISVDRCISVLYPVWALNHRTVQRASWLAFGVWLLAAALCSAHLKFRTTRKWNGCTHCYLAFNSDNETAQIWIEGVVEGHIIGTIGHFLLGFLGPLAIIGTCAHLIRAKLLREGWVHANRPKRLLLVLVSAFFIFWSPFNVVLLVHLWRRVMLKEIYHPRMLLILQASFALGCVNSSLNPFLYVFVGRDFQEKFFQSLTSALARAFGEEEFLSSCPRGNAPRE

| SMILES | activation |
| --- | --- |
| CCCCc1ccc(-n2nc3cc(Cl)c(NC(=O)c4ccc(OC)cc4)cc3n2)cc1 | inactive: -31.9% |
| CCOC(=O)c1ccc2nc(C)cc(Nc3ccc(OC(C)C)cc3)c2c1 | inactive: 22% |
| CCOC(=O)c1cccc(NS(=O)(=O)c2ccc3[nH]c4c(c3c2)CCCC4)c1 | active: 82% |
| Cc1ccc(OC(C)C(=O)N2CCN(CCc3ccncc3)CC2)cc1C (stereo not given) | inactive: 0.702% |
| Cc1cccc(C(=O)NCCc2nc3ccccc3n2Cc2ccc(Cl)cc2)c1 | inactive: 17% |
| CC(Sc1nc2c(c(=O)[nH]1)CCCC2)C(=O)Nc1cc(C(F)(F)F)ccc1Cl (stereo not given) | inactive: 24.9% |
| COCCCNC(=O)C1CCC(Cn2c(=O)c3sccc3n(C)c2=O)CC1 (stereo not given) | inactive: 4.17% |
| CCC(CC)C(=O)Nc1ccccc1SCc1cc(=O)c2cccc(C)c2[nH]1 | inactive: 13.4% |
| CCOc1ccc(-c2cc3c(=O)n(Cc4nc(-c5ccccc5OCC)oc4C)ccn3n2)cc1Cl | inactive: 13.4% |
| Cc1ccc(Cn2c(C)c(CNCC(C)c3ccccc3)c(C(=O)O)c2C)cc1 (stereo not given) | active: 75.2% |
| Cc1ccc(NC(=O)c2ccc(Cl)cc2Cl)c(C(=O)c2ccccc2)c1 | inactive: -20.2% |
| Cc1ccc(NC(=O)CN2CCN(c3ccccc3F)CC2)cc1F | inactive: -8.75% |
| CCOC(=O)C1CCN(c2nc3c(S(=O)(=O)c4ccccc4)nnn3c3ccc(Cl)cc23)CC1 | inactive: -9.79% |
| CC1=C(C(=O)Nc2ccccc2)C(c2cccc(Cl)c2)n2nc(SCC(=O)c3ccc(C)cc3)nc2N1 (stereo not given) | inactive: -4.95% |
| O=C(NCc1ccccc1F)C(=O)NCC(c1ccco1)S(=O)(=O)c1cccs1 (stereo not given) | inactive: -9.92% |
| CCOc1ccc(NC(=O)CCCc2nnc3n(C)c(=O)c4sccc4n23)cc1 | inactive: -19.4% |
| Cc1cccc(OCC(=O)Nc2ccccc2C(=O)OCc2cc(=O)n3nc(C)sc3n2)c1 | inactive: -18.2% |
| Cc1ccc(Cn2c(=O)n(CCCCC(=O)NCc3ccccc3Cl)c(=O)c3ccccc32)cc1 | inactive: 10.4% |
| O=c1[nH]c2ccc(NCc3ccc(-c4ccccc4)o3)cc2[nH]1 | inactive: 29.5% |
| O=C(Nc1ccc2oc(-c3ccc4ccccc4c3)nc2c1)c1ccc(Cl)c(Cl)c1 | inactive: -8.2% |
| CCOc1ccccc1Nc1sc(C(=O)c2ccccc2)c(N)c1S(=O)(=O)c1ccc(C)cc1 | inactive: 9.26% |
| COc1ccc(OC)c(NC(=O)c2cn(CC(C)C)c(=O)c3cc(OC)c(OC)cc23)c1 | inactive: 12.2% |

| SMILES | activation |
| --- | --- |
| Cc1ccc(CCNC(=O)c2cc3c(-c4ccccc4F)nn(C)c3s2)cc1 | inactive: 38.2% |
| COCCCNC(=O)c1ccc2c(c1)nc(C)n2-c1cccc(C)c1 | inactive: -7.5% |
| CCOc1ccc(-c2oc3ccc(C)cc3c(=O)c2O)cc1 | inactive: -3.12% |
| Fc1ccc(Nc2ncnc3c2nc2n3CCCCC2)c(F)c1 | inactive: 41.4% |
| CCN(c1ccccc1)S(=O)(=O)c1ccc(NC(=O)c2cc(=O)c3ccccc3o2)cc1 | inactive: -11.1% |
| Nc1ccc(N2C(=O)c3ccccc3C2=O)c(Cl)c1 | inactive: 8.03% |
| O=C(Nc1ccc(C(=O)OCc2cc(=O)n3nc(C4CC4)sc3n2)cc1)c1cccc(F)c1 | inactive: 2.2% |
| COc1ccc2c(CNC3CCCCCC3)c(C(=O)O)n(Cc3ccccc3F)c2c1 | inactive: -4.09% |
| CCOC(=O)c1c(S(=O)(=O)N2CCC(C(=O)Nc3ncccc3C)CC2)c(C)n(C)c1C | inactive: -11.9% |
| CN1CCc2cc(Cl)c(O)cc2[C@@H](c2ccccc2)C1 | inactive: 0.994% |
| CCOC(=O)c1cc(-c2ccc(OC)cc2)n(CCC(=O)NC2CCCCC2)c1C | inactive: -37.6% |
| O=C(Nc1ccc(F)cc1)C1CCN(S(=O)(=O)c2ccc3c(c2)CCCN3C(=O)C2CCC2)CC1 | inactive: -23.7% |
| CCOC(=O)c1cnc2ccc(C)cc2c1Nc1ccc(N(CC)CC)cc1 | inactive: 43% |
| CCC(=O)N1CCc2cc(Br)cc(S(=O)(=O)CCC(=O)N3CCN(c4cc(C)ccc4C)CC3)c21 | inactive: -5.44% |
| CCCc1nnc(NC(=O)c2cc(=O)c3cc(C)c(C)cc3o2)s1 | inactive: -11.5% |
| Cc1c(C(=O)OC2CCCCC2)[nH]c2c1C(=O)CC(c1ccc(C(C)(C)C)cc1)C2 (stereo not given) | inactive: 4.85% |
| CCOC(=O)c1cc(S(=O)(=O)NCc2cccc(Cl)c2)[nH]n1 | inactive: -19.6% |
| Cc1cccc(C(=O)Nc2sc3c(c2C(=O)NC(C)C)CCCC3)c1 | inactive: -6.8% |
| Cn1c(=O)c2c(nc(NCCc3ccccc3)n2Cc2ccc(Cl)cc2)n(C)c1=O | active: 72.7% |
| CCOC(=O)c1cnc2cc(F)c(F)cc2c1Nc1ccccc1O | inactive: 2.82% |
| Nc1nnnn1-c1ccccc1 | inactive: -11.3% |
| CC(C)(C)OC(=O)N1CCC(c2c(C(=O)N3CCCCC3)cnn2-c2cccc(F)c2)CC1 | inactive: 2.2% |

| SMILES | activation |
| --- | --- |
| Cc1ccc(CNC(=O)CSc2ncc3c(n2)-c2ccc(Cl)cc2N(Cc2ccccc2)S3(=O)=O)cc1 | inactive: 12% |
| Cc1ccc(NS(=O)(=O)c2cc3[nH]c(=O)c(=O)[nH]c3cc2C)cc1N(C)C | inactive: -15.6% |
| CCc1ccccc1NC(=O)[C@@H](c1ccccc1)N1Cc2ccccc2C1=O | inactive: -7.59% |
| Cc1ncc(CO)c(CO)c1O | inactive: -12.9% |
| Cc1ccc(NC(=O)CCCn2c(=O)c3cccn3c3cccnc32)cc1C | inactive: -3.02% |
| Cc1ccc(C)c(NC(=O)CSc2nnc(-c3cc4occc4n3C)n2-c2ccccc2C)c1 | inactive: -26.1% |
| CC(=O)c1ccc(N2CCN(C(=O)CCc3nnc4n(C)c(=O)c5sccc5n34)CC2)cc1 | inactive: 6.17% |
| COc1cc(OC)c(NC(=O)c2noc3c2CSc2ccccc2-3)cc1Cl | inactive: -15.1% |
| CCCCn1c(SCC(=O)Nc2ccc(OCC)cc2)nc2ccsc2c1=O | inactive: -2.05% |
| CC(=O)N1CCc2c(sc3c2c(=O)n(-c2cc(Cl)ccc2C)c(=O)n3Cc2ccccc2F)C1 | inactive: -4.23% |
| CC1(C)CC(=O)c2c(oc3c(Cl)cc(NS(=O)(=O)c4ccc(Br)cc4)cc23)C1 | inactive: -4.15% |
| CC(C)CC(=O)Nc1ccccc1OCc1cc(=O)n2ccccc2n1 | inactive: -11% |
| COc1ccc(C(=O)COC(=O)CCCC(=O)Nc2cc(C(F)(F)F)ccc2Cl)cc1 | inactive: 3.91% |
| COC(=O)c1cc(Cl)ccc1NC(=O)CSc1ncc(S(=O)(=O)c2ccc(Br)cc2)c(=O)[nH]1 | active: 100% |
| O=C(Nc1ccc(Br)cc1F)N1CCC(CN2CCc3ccccc3C2)CC1 | inactive: -29.1% |
| Cc1ccc(Nc2c(-c3ccc(C)s3)nc3ncccn23)cc1 | inactive: -15.1% |
| CCCCOC(=O)c1ccc(NC(=O)c2cc(-c3cccs3)on2)cc1 | inactive: 6.17% |
| COc1ccc(OCC(=O)OCc2cc(=O)n3nc(C4CC4)sc3n2)cc1 | inactive: 31.4% |
| Cc1ccc(NC(=O)C(=O)NCC(c2ccc3c(c2)OCO3)N2CCOCC2)cc1C (stereo not given) | inactive: -3.19% |
| CCC(C)NC(=O)c1ccc2nc(CCc3ccccc3)oc2c1 (stereo not given) | inactive: -5.3% |
| Cc1ccc(CNC(=O)CCCc2nnc3n(C)c(=O)c4sccc4n23)cc1 | inactive: 0.171% |
| O=C(NCCc1ccc(Cl)cc1)c1cc(-c2ccc(Cl)cc2)n[nH]1 | inactive: 0.979% |

| SMILES | activation |
| --- | --- |
| Cc1cccc(-c2nc(Cn3c(SCc4cc(C)ccc4C)nc4ccncc43)c(C)o2)c1 | inactive: 13.5% |
| O=C(NCc1ccccc1Cl)C1CCC(CNS(=O)(=O)c2ccc(Br)s2)CC1 (stereo not given) | active: 98.2% |
| CCc1ccc(NC(=O)CSc2nc3ccsc3c(=O)n2C(C)CC)cc1 (stereo not given) | inactive: -22.1% |
| Cc1ccc(N(Cc2cccs2)C(=O)COc2ccccc2[N+](=O)[O-])cc1 | inactive: -21.3% |
| O=C(c1ccco1)n1nc(-c2ccccc2)nc1NCc1ccccc1Cl | inactive: -15.3% |
| CC(=O)Nc1ccc(S(=O)(=O)NCCc2csc3nc(-c4cccc(C)c4)nn23)cc1 | inactive: 15.8% |
| COc1ccc(CCNC(=O)c2nn(C)c3c2CSc2ccccc2-3)cc1OC | inactive: -11.4% |
| O=C(NCc1ccccc1)C(=O)NCC(c1cccnc1)N1CCN(c2ccccc2)CC1 (stereo not given) | inactive: -13.6% |
| CNS(=O)(=O)CCc1ccc2[nH]cc(C3CCN(C)CC3)c2c1 | inactive: 3.88% |
| Cc1ccc(-c2nn3c(-c4ccc(C)cc4)nnc3c3ccccc23)cc1 | inactive: -2.78% |
| O=C(CCCn1c2ccccc2c(=O)c2ccccc21)Nc1ccc(F)cc1Cl | inactive: 22.6% |
| COc1cc(CN(C(=O)c2oc3ccccc3c2C)C2CCS(=O)(=O)C2)cc(OC)c1OC (stereo not given) | inactive: -10% |
| COc1ccccc1-n1c(SCC(=O)Nc2ccc(C)cc2)nc(O)cc1=O | inactive: -4.99% |
| COc1ccccc1CNC(=O)CCC1N=C2c3ccccc3N=C(SCC(=O)NCCc3ccc(OC)c(OC)c3)N2C1=O (stereo not given) | inactive: -20.9% |
| Cc1ccc(-c2nc(S(=O)(=O)c3ccc(C)cc3)c(SCC(=O)NC3CCCCC3)o2)cc1 | inactive: -11.3% |
| COc1cccc(NC(=O)c2cc3c(=O)n(Cc4cccnc4)ccc3nc2C)c1 | inactive: -5.77% |
| COc1ccc(-c2noc(-c3ccc(NC(C)c4ccccc4)c([N+](=O)[O-])c3)n2)cc1OC (stereo not given) | inactive: 15.4% |
| CCc1ccc(-c2cc(C)no2)cc1S(=O)(=O)Nc1ccc(Cl)cc1 | inactive: -3.14% |
| COc1cc(NS(=O)(=O)c2ccc3oc(=O)c4ncn(C)c4c3c2)cc(OC)c1 | inactive: 0.678% |
